From PubChem BioAssay AID1645887 (National Center for Advancing Translational Sciences (NCATS), 2021)
“And” between values parts separate entries of the source, which are not always exact repeats. Equal entries are not always repeated. Hit rate of the full screen: of about 16,000 compounds, about 40 (0.2%) were called active. Not shown: some 1% with an inconclusive outcome. The call rests on the fitted dose curve; in most records, active means well fitted activation curve with a large enough effect; inconclusive means small, poorly fitted or top-dose-only effect, or another doubt; inactive means no such curve, though single readings can be large or run the other way. The list shows a part of the results. Starred links: 1 amine or outer side, 2 acyl side, 3 side chain; linkers in the order of their positions; H or OH if unused. Positions of bridges follow the written chain, without caps; N, C: chain ends. Non-standard residues stand in square brackets, D forms with d. Residues, ends and D or L forms follow the SMILES beside them. *: point of attachment. X6 = NC1=N[C@@H](O)C[C@H]([C@H](N[*:1])C(=O)[*:2])N1; ΔAla(3-NHCONH2) = NC(=O)NC=C(N)C(=O)O; β3hOrn = NCCC[C@H](N)CC(=O)*; Dap = NC[C@H](N)C(=O)O

Target: Rap guanine nucleotide exchange factor 4 (Homo sapiens) (UniProt Q8WZA2)
Experiment: Validation qHTS for agonist of cAMP-regulated guanine nucleotide exchange factor 4 (EPAC2);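 further: exchange makes BODIPY-GDP fluorescence drop when released from Rap1B; series mostly up to about 150 µM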
Conditions: EPAC2 Rap1B BODIPY-GDP exchange, fluorescence; activation: hits give high values
How it was run: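 Signal normalized against 6.5 mM cAMP as agonist control. Mix of EPAC2 (100 nM), RAP1B-BODIPY-GDP (250 nM) and GDP (50 uM) was read kinetically at 480/540 nm, every 5 min over 30 min, after 5 min room-temperature incubation with compound.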
On the % scale 0 is the no-effect control and ±100 the full control effect.

Chain of UniProt Q8WZA2 (Q8WZA2 whole entry, looked up): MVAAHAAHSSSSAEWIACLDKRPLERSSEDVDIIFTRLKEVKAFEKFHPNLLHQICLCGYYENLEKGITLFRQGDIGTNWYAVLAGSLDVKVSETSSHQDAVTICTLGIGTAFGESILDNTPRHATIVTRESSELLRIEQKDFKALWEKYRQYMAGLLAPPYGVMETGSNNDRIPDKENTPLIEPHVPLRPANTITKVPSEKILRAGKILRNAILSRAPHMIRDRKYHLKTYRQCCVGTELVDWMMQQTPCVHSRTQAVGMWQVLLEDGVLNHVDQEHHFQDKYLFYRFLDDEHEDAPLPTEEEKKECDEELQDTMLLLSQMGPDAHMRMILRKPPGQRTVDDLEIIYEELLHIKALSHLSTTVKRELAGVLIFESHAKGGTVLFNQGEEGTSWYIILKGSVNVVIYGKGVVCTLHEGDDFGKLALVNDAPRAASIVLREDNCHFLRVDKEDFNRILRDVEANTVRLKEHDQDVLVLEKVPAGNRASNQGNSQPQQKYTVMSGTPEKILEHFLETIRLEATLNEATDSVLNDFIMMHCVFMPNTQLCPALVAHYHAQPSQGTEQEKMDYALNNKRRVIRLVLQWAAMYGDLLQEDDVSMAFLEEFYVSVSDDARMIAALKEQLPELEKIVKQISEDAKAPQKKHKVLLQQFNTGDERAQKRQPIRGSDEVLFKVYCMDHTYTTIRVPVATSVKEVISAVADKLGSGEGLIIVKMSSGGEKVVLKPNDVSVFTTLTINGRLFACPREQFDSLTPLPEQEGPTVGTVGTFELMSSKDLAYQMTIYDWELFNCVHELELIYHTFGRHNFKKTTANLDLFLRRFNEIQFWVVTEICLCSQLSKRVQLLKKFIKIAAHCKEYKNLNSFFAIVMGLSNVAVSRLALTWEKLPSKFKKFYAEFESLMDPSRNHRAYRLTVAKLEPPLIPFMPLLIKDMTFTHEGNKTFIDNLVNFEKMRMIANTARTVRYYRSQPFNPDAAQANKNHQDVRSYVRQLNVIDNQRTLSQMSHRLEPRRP

activation, inactive:
COC(=O)C1=COC(O[C@H]2OC(CO)[C@H](O)C(O)C2O)[C@H]2C1C(=O)C[C@@H]2C (some centres not stated) -16.7%
N=C(N)S/C=C\C(=O)O 4.59% and -6.71%
Cc1nnc(NS(=O)(=O)c2ccc(N)cc2)s1 -17% and 9.87%
COc1ccc2c(c1)CCc1cnc(-n3ncc(C(=O)NC4CCOC4)c3C3CC3)nc1-2 (configuration not stated) -30.7%
COc1ccccc1-c1ccnc(-n2ncc(C(=O)N(C)C(C)c3nc(C)cs3)c2C2CC2)n1 (configuration not stated) 0.901%
COc1ccccc1-c1cncnc1N(C)Cc1ccco1 7.97%
C#CCCCCCCCCCCCc1ccco1 -27.6%
CCN1CCN(c2cc3c(cc2F)c(=O)c(C(=O)O)cn3C2CC2)CC1 -15.4%
CC(NC(=O)c1cc(F)ccc1F)c1nnc2n1CCN(Cc1ccco1)CC2 (configuration not stated) -4.98%
O=C1C2CC3CC1CC(O)(C3)C2 -5.01%
O=[n+]1ccn([O-])c2ccccc21 -14.1%
CS(=O)(=O)N1CCC2(CCCN(C(c3ccccc3)c3ccccc3)C2)CC1 -3.38%
COc1ccc2ccccc2c1CN1CCOc2ccc(CN3CCN(CCO)CC3)cc2C1 -2.86%
CS(=O)(=O)Nc1cccc(-c2nccc(NCc3cccs3)n2)c1 -9.6%
COc1cc(NS(C)(=O)=O)ccc1Nc1c2ccccc2nc2ccccc12 -1.52% and -18.7%
CN1c2c(nc(N)[nH]c2=O)NCC1CNc1ccc(C(=O)NC(CCC(=O)O)C(=O)O)cc1 (configuration not stated) 9.21%
CCN1CCC[C@H]1CNC(=O)c1c(OC)ccc(Br)c1OC 5.37% and -14.8%
O=C(C[N+]12CCCc3cccc(c31)CCC2)c1ccc2ccccc2c1 -9.64%
COc1ccc(-c2nc3cnc(N4CCOCC4)nc3n(C)c2=O)cc1 -3.01%
COc1ccc(-c2[nH]ncc2CN2CCOc3c(cc(-c4cccc(OC)n4)cc3OC)C2)cc1 8.86%
COc1ccc2c(OC)c3ccoc3nc2c1OC -2.4%
CCCc1nc2cccnc2n1C1CCN(C(=O)CC2NC(=O)c3ccccc32)CC1 (configuration not stated) 5.36%
CC(C)(C)CC(C)(C)N=C1Nc2cc(Cl)c(Cl)cc2N[C@]12C[C@H]1CCCC(=O)N3CC[C@@H](C2)[C@@H]13 -14.6%
C=CCN(C(C(=O)OC)C(C)C)S(=O)(=O)CCNCc1ccccc1 (configuration not stated) -10.1%
O=C(NCCc1c[nH]c2ccccc12)c1cccnc1 0.38%
C1CCN2C[C@@H]3C[C@@H](CN4CCCC[C@@H]34)[C@H]2C1 -16.3% and -13.6%
CN(Cc1ccc2c(c1)CN(C(=O)c1cccc(N(C)C)c1)CCO2)Cc1cc(C2CC2)n[nH]1 -16.7%
O=S(=O)(c1ccccc1)N1CCC2(CCCN(Cc3cc(C(F)(F)F)cc(C(F)(F)F)c3)C2)CC1 -2.81%
O=C(O)C[C@H]1c2ccc(C(F)(F)F)cc2S(=O)(=O)N1C1CCCCC1 -19.6%
C=CCCCCCCCCCCC/C=C/C(O)COC(C)=O (configuration not stated) -44%
CCCCCCCCCCCCN1[C@@H](CC(=O)OC)c2cc(C(F)(F)F)ccc2S1(=O)=O -35.8%
CCCCCCCC/C=C/CCCCCCCCOP(=O)([O-])OCC[N+](C)(C)C -32.5%
CC(=O)OCC(OC(C)=O)C(OC(C)=O)C(OC(C)=O)C(OC(C)=O)C(COC(C)=O)OC(C)=O (configuration not stated) -21.2%
FC(F)(F)c1ccccc1-c1nccc(NCc2cccs2)n1 -21.3%
CC1CC(OC(=O)C(O)c2ccccc2)CC(C)(C)N1C (configuration not stated) -19.3% and 0.128%
OC[C@H]1O[C@@H](n2cnc3c(NCc4ccco4)ncnc32)[C@H](O)[C@@H]1O -5.18% and -17.5%
CC(C)CCOC(=O)c1ccc(N(C)C)cc1 -14.6%
COCC(=O)Nc1cc(C(=O)N2CCc3c([nH]c4ccccc34)C2)cc2nc(-c3ccccc3)n(C)c12 -3.22%
COCC(=O)N1CCC2(CCCN(Cc3ccccc3)C2)CC1 -23.7%
N[C@@]1(C(=O)O)CN[C@H](C(=O)O)C1 -5.91%
CCN1CCN(C(=O)N[C@@H](C(=O)N[C@@H]2C(=O)N3C(C(=O)O)=C(CSc4nnnn4C)CS[C@H]23)c2ccc(O)cc2)C(=O)C1=O 8.68%
CN(C)CCOc1ccc(/C(=C(/CCCl)c2ccccc2)c2ccccc2)cc1 -19.2%
COCCn1c(=O)c(-c2cccs2)nc2cnc(N3CCOCC3)nc21 8.58%
COC(=O)C1=C(C)NC(C)=C(C(=O)OCCCN2CCC(c3ccccc3)(c3ccccc3)CC2)[C@H]1c1cccc([N+](=O)[O-])c1 -14.3% and -25.8%
Cc1ccc(Cl)c(Nc2ccccc2C(=O)O)c1Cl -14.4% and -5.8% and 7.96%
COc1ccc(OC)c(C(=O)N2CCc3c(cnc(C)c3CNS(=O)(=O)N(C)C)C2)c1 -13.4%
Cn1cccc1C(=O)N1CCC[C@@]2(CCN(C(c3ccccc3)c3ccccc3)C2)C1 4.18%
CC(C)C[C@@H](CO)N1CCN(Cc2ccccc2)CCC1=O -28.5% and -16%
O=C(NCCO[N+](=O)[O-])c1cccnc1 -14.8%
COc1cc(-c2noc(C)c2/C=C/c2ccc(N)cc2)cc(OC)c1OC -21.9%
CN1CCCN(C(=O)[C@@H]2C[C@@H](Sc3nc4ccccc4[nH]3)CN2Cc2ccc(OC(F)(F)F)cc2)CC1 -24.9%
COc1ccc(C(=O)N2CCC[C@@]3(CCN(C)C3)C2)cc1 -8.25%
C#C[C@@]1(O)CCC2C3CCc4cc(O)ccc4C3CC[C@@]21C (some centres not stated) -13.8%
Cc1c(C(=O)N2CCCC(C)C2)sc2ncnc(NCCN3CCCCC3)c12 (configuration not stated) -10.9%
N[C@]1(C(=O)O)CCc2cc(C(=O)O)ccc21 -10.5%
CO[C@@]12[C@H](COC(N)=O)C3=C(C(=O)C(C)=C(N)C3=O)N1C[C@@H]1N[C@@H]12 -15.6%
CC(C(=O)O)c1ccc(N2Cc3ccccc3C2=O)cc1 (configuration not stated) -2.3%
NCCC[C@H](N)CC(=O)N[C@H]1CNC(=O)[C@H]([C@H]2C[C@H](O)N=C(N)N2)NC(=O)C(=CNC(N)=O)NC(=O)[C@H](CO)NC(=O)[C@H](CO)NC1=O (β3hOrn-[Dap]SS[ΔAla(3-NHCONH2)][X6]; lactam 1-C) -11.7%
COc1ccccc1CCn1c(=O)c(-c2cn(C)c3ccccc23)nc2cncnc21 -7.24%
O=C(c1ccccc1)C(c1ccccc1)[n+]1csc2ccccc21 (configuration not stated) -10.4%
COC(=O)[C@H](CC(C)C)NS(=O)(=O)N(Cc1ccccc1)[C@@H](CC(C)C)C(=O)OC -36.5%
CC(NN)c1ccccc1 (configuration not stated) -23.2%
COC(=O)[C@H]1Cc2c([nH]c3ccccc23)CN1C(=O)COc1ccc2c(C)cc(=O)oc2c1 -15.4%
COC(=O)c1cn([C@@H]2C[C@@H](C(=O)N3CCCCCC3)N(Cc3cc4ccccc4s3)C2)nn1 -9.69%
C=Nc1ccc(/C=C/c2ccnc3ccccc23)cc1 9.85%
CN(C)c1nc(-c2ccccc2C(F)(F)F)nc2ccccc12 -19.3%
Oc1ccc(OCc2ccccc2)cc1 5.35%
COCCn1c(=O)c(-c2ccc(F)cc2)nc2cnc(Oc3ccccc3)nc21 2.49%
COc1cc(O)c2c(=O)cc(-c3ccccc3)oc2c1 -9.41%
CC(C)C[C@@H](COc1ccccc1)N1CCN(CCc2ccccc2)CCC1=O -16.1%
COc1ccc(OC)c(-c2ccc(O)c(CN3CCc4c([nH]c5ccccc45)C3)c2)c1 7.59%
c1ccc(CNc2ccnc(-c3ccoc3)n2)cc1 -0.57%
CC(=O)OCC(=O)[C@@]1(O)CC[C@H]2[C@@H]3CCC4=CC(=O)CC[C@]4(C)C3=CC[C@@]21C -5.3%
COC(=O)CNC(=O)C(=O)OC 5.94%
CCCn1c(=O)c2c(ncn2C)n(CCC)c1=O 2.02% and 5.72%
COc1cccc(CNC(=O)c2c(OC)cc(=O)n3c2CCN(C(=O)c2cc(F)cc(F)c2)CC3)c1 -4.78%
C[C@H]1C[C@H]2[C@@H]3CCC4=CC(=O)C=C[C@]4(C)[C@@]3(F)[C@@H](O)C[C@]2(C)[C@@]1(O)C(=O)CO -18.1%
COc1cccc(-c2cncnc2Nc2ccccc2)c1 -4.51%
COc1cccc(Cn2c(=O)c(CCc3ccccc3)nc3cnc(OC)nc32)c1 8.19%
CC(C)C1=CC2=CC[C@@H]3[C@](C)(CCC[C@@]3(C)C(=O)O)[C@H]2CC1 1.84%
COc1ccccc1CNc1cc(-c2ccccc2Cl)ncn1 9.1%
CN(C)c1ncc2nc(-c3cccs3)c(=O)n(C[C@H]3CCCO3)c2n1 15.7%
